Test results as given in the CheMixHub viscosity set.
This continues a long series; more values of the same kind are listed elsewhere.

Test: xn = mol fraction of the nth substance listed

C1COCCO1 + O
Conditions	viscosity [mPa·s]
293.15 K, 101 kPa, x1 = 0.00206	1.028
293.15 K, 101 kPa, x1 = 0.00628	1.069
293.15 K, 101 kPa, x1 = 0.01516	1.155
293.15 K, 101 kPa, x1 = 0.03482	1.326
293.15 K, 101 kPa, x1 = 0.05303	1.482
293.15 K, 101 kPa, x1 = 0.07366	1.651
293.15 K, 101 kPa, x1 = 0.08413	1.737
293.15 K, 101 kPa, x1 = 0.1114	1.924
293.15 K, 101 kPa, x1 = 0.1433	2.083
293.15 K, 101 kPa, x1 = 0.1726	2.174
293.15 K, 101 kPa, x1 = 0.2065	2.228
293.15 K, 101 kPa, x1 = 0.2501	2.233
293.15 K, 101 kPa, x1 = 0.3029	2.202
293.15 K, 101 kPa, x1 = 0.356	2.126
293.15 K, 101 kPa, x1 = 0.4203	1.996
293.15 K, 101 kPa, x1 = 0.4996	1.843
293.15 K, 101 kPa, x1 = 0.5367	1.776
293.15 K, 101 kPa, x1 = 0.5999	1.672
293.15 K, 101 kPa, x1 = 0.6479	1.6
293.15 K, 101 kPa, x1 = 0.7309	1.501
293.15 K, 101 kPa, x1 = 0.7621	1.469
293.15 K, 101 kPa, x1 = 0.7953	1.436
293.15 K, 101 kPa, x1 = 0.8686	1.38
293.15 K, 101 kPa, x1 = 0.9092	1.353
293.15 K, 101 kPa, x1 = 0.976	1.317
293.15 K, 101 kPa, x2 = 0.0145	1.313
295.1 K, 101.32 kPa, x1 = 0.02221	1.163
295.1 K, 101.32 kPa, x1 = 0.04863	1.393
295.1 K, 101.32 kPa, x1 = 0.08057	1.639
295.1 K, 101.32 kPa, x1 = 0.12	1.861
295.1 K, 101.32 kPa, x1 = 0.1698	2.072
295.1 K, 101.32 kPa, x1 = 0.2347	2.168
295.1 K, 101.32 kPa, x1 = 0.2949	2.144
295.1 K, 101.32 kPa, x1 = 0.323	2.119
295.1 K, 101.32 kPa, x1 = 0.3802	2.048
295.1 K, 101.32 kPa, x1 = 0.4499	1.889
295.1 K, 101.32 kPa, x1 = 0.5367	1.734
295.1 K, 101.32 kPa, x1 = 0.6479	1.548
295.1 K, 101.32 kPa, x1 = 0.7953	1.396
295.1 K, 101.32 kPa, x1 = 0.8686	1.347
295.1 K, 101.32 kPa, x1 = 0.9529	1.282
298.15 K, 101 kPa, x1 = 0.00163	0.8989
298.15 K, 101 kPa, x1 = 0.00205	0.9073
298.15 K, 101 kPa, x1 = 0.00206	0.9128
298.15 K, 101 kPa, x1 = 0.0022	0.9086
298.15 K, 101 kPa, x1 = 0.00306	0.917
298.15 K, 101 kPa, x1 = 0.00415	0.9254
298.15 K, 101 kPa, x1 = 0.00523	0.9354
298.15 K, 101 kPa, x1 = 0.00628	0.9453
298.15 K, 101 kPa, x1 = 0.0063	0.9446
298.15 K, 101 kPa, x1 = 0.00844	0.9613
298.15 K, 101 kPa, x1 = 0.01064	0.9805
298.15 K, 101 kPa, x1 = 0.01287	0.9996
298.15 K, 101 kPa, x1 = 0.01516	1.017
298.15 K, 101 kPa, x1 = 0.01748	1.039
298.15 K, 101 kPa, x1 = 0.01987	1.062
298.15 K, 101 kPa, x1 = 0.0226	1.083
298.15 K, 101 kPa, x1 = 0.02719	1.122
298.15 K, 101 kPa, x1 = 0.03233	1.157
298.15 K, 101 kPa, x1 = 0.03482	1.164
298.15 K, 101 kPa, x1 = 0.03751	1.197
298.15 K, 101 kPa, x1 = 0.04289	1.242
298.15 K, 101 kPa, x1 = 0.04885	1.282
298.15 K, 101 kPa, x1 = 0.05303	1.299
298.15 K, 101 kPa, x1 = 0.06378	1.392
298.15 K, 101 kPa, x1 = 0.07366	1.448
298.15 K, 101 kPa, x1 = 0.08066	1.499
298.15 K, 101 kPa, x1 = 0.08413	1.522
298.15 K, 101 kPa, x1 = 0.09926	1.61
298.15 K, 101 kPa, x1 = 0.1114	1.681
298.15 K, 101 kPa, x1 = 0.1214	1.728
298.15 K, 101 kPa, x1 = 0.1433	1.817
298.15 K, 101 kPa, x1 = 0.1703	1.913
298.15 K, 101 kPa, x1 = 0.1726	1.892
298.15 K, 101 kPa, x1 = 0.2	1.923
298.15 K, 101 kPa, x1 = 0.2065	1.944
298.15 K, 101 kPa, x1 = 0.2344	1.991
298.15 K, 101 kPa, x1 = 0.2501	1.953
298.15 K, 101 kPa, x1 = 0.3029	1.934
298.15 K, 101 kPa, x1 = 0.3224	1.926
298.15 K, 101 kPa, x1 = 0.356	1.893
298.15 K, 101 kPa, x1 = 0.4	1.784
298.15 K, 101 kPa, x1 = 0.4063	1.797
298.15 K, 101 kPa, x1 = 0.4203	1.8
298.15 K, 101 kPa, x1 = 0.4764	1.669
298.15 K, 101 kPa, x1 = 0.4964	1.618
298.15 K, 101 kPa, x1 = 0.4996	1.655
298.15 K, 101 kPa, x1 = 0.5367	1.597
298.15 K, 101 kPa, x1 = 0.5999	1.51
298.15 K, 101 kPa, x1 = 0.6	1.453
298.15 K, 101 kPa, x1 = 0.6421	1.412
298.15 K, 101 kPa, x1 = 0.6479	1.451
298.15 K, 101 kPa, x1 = 0.7309	1.362
298.15 K, 101 kPa, x1 = 0.7621	1.333
298.15 K, 101 kPa, x1 = 0.7921	1.253
298.15 K, 101 kPa, x1 = 0.7953	1.305
298.15 K, 101 kPa, x1 = 0.8	1.262
298.15 K, 101 kPa, x1 = 0.8686	1.25
298.15 K, 101 kPa, x1 = 0.897	1.192
298.15 K, 101 kPa, x1 = 0.9092	1.224
298.15 K, 101 kPa, x1 = 0.9502	1.18
298.15 K, 101 kPa, x1 = 0.976	1.187
298.15 K, 101 kPa, x2 = 0.003	1.18
298.15 K, 101 kPa, x2 = 0.0145	1.182
298.15 K, 101 kPa, x2 = 0.135	1.21
